Results published in paper PMC10377357 (2023).
No constants are given. Whether binding was seen depends on the method and setting. Some binding calls cover weakened binding; strength is not graded here. For some of these results: Tags and fused reporters may be left off the sequences shown.

T1: Rps2, the 33 N-terminal residues, G4BD fusion (S. cerevisiae) (UniProt P25443)
T1 sequence: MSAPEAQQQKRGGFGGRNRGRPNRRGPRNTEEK

T2: Rps2(1–22)-G4BD (S. cerevisiae) (UniProt P25443)
T2 sequence: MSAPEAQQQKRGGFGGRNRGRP

T3: Rps2, the 28 N-terminal residues, G4BD fusion (S. cerevisiae) (UniProt P25443)
T3 sequence: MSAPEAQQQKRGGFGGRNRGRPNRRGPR

T4: Rps2-G4BD (S. cerevisiae) (UniProt P25443)
T4 sequence: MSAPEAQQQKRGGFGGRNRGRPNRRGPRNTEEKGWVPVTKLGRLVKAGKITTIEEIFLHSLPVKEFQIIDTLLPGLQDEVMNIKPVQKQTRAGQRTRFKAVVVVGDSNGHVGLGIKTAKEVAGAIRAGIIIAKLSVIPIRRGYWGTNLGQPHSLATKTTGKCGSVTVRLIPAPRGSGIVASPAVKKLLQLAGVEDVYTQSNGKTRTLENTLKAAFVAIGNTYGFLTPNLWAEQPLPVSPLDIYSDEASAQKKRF

T5: Rps2(10–28)-G4BD (S. cerevisiae) (UniProt P25443)
T5 sequence: KRGGFGGRNRGRPNRRGPR

T6: G4BD-Rps2 (S. cerevisiae), P25443
T6 chain: T4 sequence

T7: Rps2-G4BD (S. cerevisiae), P25443
T7 chain: T4 sequence

B1: full-length Tsr4-G4AD (protein, UniProt P25040 1-408)
chain: MSKIEELPPSDTDDHSYSSKPGDVFLAFVDAPVKETDDILVEDSFIGGEPKWLHPDSEPPAELLKCGACKSADNMKLLLQAFSPLDDEQMSAIQQRLGINNMSYINPQDDRVLYVFLCTECQRKGNSVRCIRGVKKNKNVDSLSEKMASTSLEKDFQINPFDLSNNSDSKCNAFSSNPFGGANANPFGADSINSNISQSKDEGKKKESATVSAKTARKLHDLQKDKEYDGNKCFKSCLLYVEEETFKNKKPAHLQLPKNLKIDKEALDLTGDEDLEKDPIKLDPRTEKLSKFLDDDTFQKFQEVVGYNPLQVLRYDLGGKPLLYAETKVDILSTVPRPGYNPSSQRIFEMQLMPKMIFDLEEVVSVDNGMEWGTILVFTDVENYMPEFDEHGVGYVEECVKVQWESRT
B2: full-length Pse1-G4AD, P32337 1-1089 (protein)
chain: MSALPEEVNRTLLQIVQAFASPDNQIRSVAEKALSEEWITENNIEYLLTFLAEQAAFSQDTTVAALSAVLFRKLALKAPPSSKLMIMSKNITHIRKEVLAQIRSSLLKGFLSERADSIRHKLSDAIAECVQDDLPAWPELLQALIESLKSGNPNFRESSFRILTTVPYLITAVDINSILPIFQSGFTDASDNVKIAAVTAFVGYFKQLPKSEWSKLGILLPSLLNSLPRFLDDGKDDALASVFESLIELVELAPKLFKDMFDQIIQFTDMVIKNKDLEPPARTTALELLTVFSENAPQMCKSNQNYGQTLVMVTLIMMTEVSIDDDDAAEWIESDDTDDEEEVTYDHARQALDRVALKLGGEYLAAPLFQYLQQMITSTEWRERFAAMMALSSAAEGCADVLIGEIPKILDMVIPLINDPHPRVQYGCCNVLGQISTDFSPFIQRTAHDRILPALISKLTSECTSRVQTHAAAALVNFSEFASKDILEPYLDSLLTNLLVLLQSNKLYVQEQALTTIAFIAEAAKNKFIKYYDTLMPLLLNVLKVNNKDNSVLKGKCMECATLIGFAVGKEKFHEHSQELISILVALQNSDIDEDDALRSYLEQSWSRICRILGDDFVPLLPIVIPPLLITAKATQDVGLIEEEEAANFQQYPDWDVVQVQGKHIAIHTSVLDDKVSAMELLQSYATLLRGQFAVYVKEVMEEIALPSLDFYLHDGVRAAGATLIPILLSCLLAATGTQNEELVLLWHKASSKLIGGLMSEPMPEITQVYHNSLVNGIKVMGDNCLSEDQLAAFTKGVSANLTDTYERMQDRHGDGDEYNENIDEEEDFTDEDLLDEINKSIAAVLKTTNGHYLKNLENIWPMINTFLLDNEPILVIFALVVIGDLIQYGGEQTASMKNAFIPKVTECLISPDARIRQAASYIIGVCAQYAPSTYADVCIPTLDTLVQIVDFPGSKLEENRSSTENASAAIAKILYAYNSNIPNVDTYTANWFKTLPTITDKEAASFNYQFLSQLIENNSPIVCAQSNISAVVDSVIQALNERSLTEREGQTVISSVKKLLGFLPSSDAMAIFNRYPADIMEKVHKWFA

Legend:
[1] = target: T1, Rps2, the 33 N-terminal residues, G4BD fusion (S. cerevisiae); assay: two-hybrid; Yeast strain PJ69-4A; Rps2 variants C-terminally fused to the Gal4 DNA-binding domain, full-length Tsr4 C-terminally fused to the Gal4 activation domain, CEN low-copy plasmids; growth on -HLT (weak) and -ALT (strong), 3 days at 30 °C
[2] = target: T2, Rps2(1–22)-G4BD (S. cerevisiae); assay: as above
[3] = target: T3, Rps2, the 28 N-terminal residues, G4BD fusion (S. cerevisiae); assay: as above
[4] = target: T4, Rps2-G4BD (S. cerevisiae); assay: as above
[5] = target: T5, Rps2(10–28)-G4BD (S. cerevisiae); assay: as above
[6] = target: T6, G4BD-Rps2 (S. cerevisiae), P25443; assay: two-hybrid; Yeast strain PJ69-4A; Rps2 variants N- or C-terminally fused to the Gal4 DNA-binding domain, Pse1 or Pse1.302C C-terminally fused to the Gal4 activation domain, 2µ high-copy plasmids; growth on -HLT (weak) and -ALT (strong), 3 days at 30 °C; conditions: remark: other sources report otherwise
[7] = target: T7, Rps2-G4BD (S. cerevisiae), P25443; assay: as above; conditions: remark: other sources report otherwise

Binder	binding [1]	binding [2]	binding [3]	binding [4]	binding [5]	binding [6]	binding [7]
B1	binds	binds weakly	binds	binds	binds	–	–
B2	–	–	–	–	–	no binding	no binding
